The chains are these.
B1: GPR68, Q15743 (parent)
chain: MGNITADNSSMSCTIDHTIHQTLAPVVYVTVLVVGFPANCLSLYFGYLQIKARNELGVYLCNLTVADLFYICSLPFWLQYVLQHDNWSHGDLSCQVCGILLYENIYISVGFLCCISVDRYLAVAHPFRFHQFRTLKAAVGVSVVIWAKELLTSIYFLMHEEVIEDENQHRVCFEHYPIQAWQRAINYYRFLVGFLFPICLLLASYQGILRAVRRSHGTQKSRKDQIQRLVLSTVVIFLACFLPYHVLLLVRSVWEASCDFAKGVFNAYHFSLLLTSFNCVADPVLYCFVSETTHRDLARLRGACLAFLTCSRTGRAREAYPLGAPEASGKSGAQGEEPELLTKLHPAFQTPNSPGSGGFPTGRLA

Data set [1] covers variants of B1. Nature of the data set: cAMP reporter score (Enrich2 score, wild type = 0); higher = more signal; HEK293T, FACS bins.
The variants in data set [2] derive from B1. Nature of the data set: surface expression score (Enrich2 score, wild type = 0); higher = more signal; HEK293T, FACS bins.

We go through 32 variants from the GPR68 mutational scans of Howard et al. (2025).

Scores with a large standard error are left out. Two further conditions of the source, in which the scores hardly spread, are not listed. Read del as a deletion of the residues named and ins as an insertion between two positions. For part of these data: The concentration of ogerin is not given here.

For L41_S42insGSG, the cAMP reporter score in data set [1] (pH 5.5) is -0.549; in data set [1] (pH 6), 0.769; in data set [1] (pH 6, modulator: ogerin), -1.53; in data set [1] (pH 6.5, modulator: ogerin) it was -0.227. In data set [2], the surface expression score is -2.2.
Consider F36_P37insG, for which the cAMP reporter score in data set [1] (pH 5.5) is -1.48; in data set [1] (pH 6), -0.963; in data set [1] (pH 6, modulator: ogerin) it was -0.958; in data set [1] (pH 6.5, modulator: ogerin) it was -0.665. The surface expression score in data set [2] was -2.52.
For A38_N39insGSG the same measures were -1.3, 0.599, -1.59, -0.084 and -1.51.
For G46_Y47insG the same measures were -1.02, -0.291, -0.532, 0.595 and -2.11.
In the same order, the values of V34Q are -1.74, -1.59, -1.65, -1.13 and -2.06.
As for V34G, the cAMP reporter score in data set [1] (pH 5.5) was -0.604; in data set [1] (pH 6), -1.36; in data set [1] (pH 6, modulator: ogerin), -1.29; in data set [1] (pH 6.5, modulator: ogerin), -1.67. Besides, in data set [2], the surface expression score is -1.96.
For V34W the same measures were -0.762, -0.08, -0.533, -0.048 and -1.78.
For V34H the same measures were -0.424, -0.019, 0.007, -0.159 and -2.45.
For V34S the same measures were -0.754, -1.15, -1.68, -0.606 and -0.959.
In the case of V34P, the cAMP reporter score in data set [1] (pH 5.5) was -1.46; in data set [1] (pH 6), -1.02; in data set [1] (pH 6.5, modulator: ogerin) it was -1.09. For the same variant, the surface expression score in data set [2] is -1.77.
In the case of V34I, the cAMP reporter score in data set [1] (pH 5.5) is 0.924; in data set [1] (pH 6), -0.152; in data set [1] (pH 6, modulator: ogerin) it was 0.499; in data set [1] (pH 6.5, modulator: ogerin), 1.3. The surface expression score in data set [2] came out at 1.71.
For V34T, the cAMP reporter score was -0.972 in data set [1] (pH 5.5); -1.28 in data set [1] (pH 6); -1.21 in data set [1] (pH 6, modulator: ogerin); -0.271 in data set [1] (pH 6.5, modulator: ogerin). In addition, the surface expression score in data set [2] is -2.29.
In the same order, the values of V34M are -0.195, 0.116, -0.216, 0.278 and -1.42.
In the same order, the values of V34N are -0.96, -0.203, -1.77, -0.65 and -1.88.
With V34F, the cAMP reporter score was found to be 0.48 in data set [1] (pH 5.5); 0.803 in data set [1] (pH 6); 0.603 in data set [1] (pH 6, modulator: ogerin); 0.55 in data set [1] (pH 6.5, modulator: ogerin). The surface expression score in data set [2] came out at 0.677.
For V34Y, the cAMP reporter score in data set [1] (pH 5.5) was -1.18; in data set [1] (pH 6) it was -1.78; in data set [1] (pH 6.5, modulator: ogerin), -0.493.
For the variant V34L, the cAMP reporter score was -0.582 in data set [1] (pH 5.5); -0.081 in data set [1] (pH 6); -0.462 in data set [1] (pH 6, modulator: ogerin); -0.446 in data set [1] (pH 6.5, modulator: ogerin). Further, in data set [2], the surface expression score is -0.231.
For V34K the same measures were -0.803, -1.07, -1.65, -0.646 and -2.67.
In the case of N39_C40del, the cAMP reporter score in data set [1] (pH 5.5) was -0.91; in data set [1] (pH 6), -0.55; in data set [1] (pH 6, modulator: ogerin) it was -0.724; in data set [1] (pH 6.5, modulator: ogerin), -0.109. Further, the surface expression score in data set [2] is -2.25.
For G35_P37del, the cAMP reporter score in data set [1] (pH 5.5) is -1.37; in data set [1] (pH 6), -0.738; in data set [1] (pH 6, modulator: ogerin) it was -1.52; in data set [1] (pH 6.5, modulator: ogerin) it was -1.21. Besides, the surface expression score in data set [2] was -2.21.
V34_G35del: the cAMP reporter score in data set [1] (pH 5.5) was -1.48; in data set [1] (pH 6) it was -1.66; in data set [1] (pH 6, modulator: ogerin) it was -1.12; in data set [1] (pH 6.5, modulator: ogerin), -1.41. In addition, the surface expression score in data set [2] was -2.6.
Regarding F45del, the cAMP reporter score in data set [1] (pH 5.5) was -0.845; in data set [1] (pH 6), -0.745; in data set [1] (pH 6, modulator: ogerin), -1.84; in data set [1] (pH 6.5, modulator: ogerin), -1.2. Further, the surface expression score in data set [2] is -2.35.
For S42_L43insG the same measures were -0.968, -1.44, -1.2, -1.24 and -2.77.
With C40del, the cAMP reporter score in data set [1] (pH 5.5) was -0.884; in data set [1] (pH 6), 0.541; in data set [1] (pH 6, modulator: ogerin), -1.26; in data set [1] (pH 6.5, modulator: ogerin), 0.339. Besides, the surface expression score in data set [2] is -2.02.
Take F45_G46insG: the cAMP reporter score in data set [1] (pH 5.5) is -0.12; in data set [1] (pH 6, modulator: ogerin), -1.24. Further, the surface expression score in data set [2] is -2.51.
Turning to Y44I, the cAMP reporter score in data set [1] (pH 5.5) is -0.152; in data set [1] (pH 6) it was -0.4; in data set [1] (pH 6, modulator: ogerin), 0.098; in data set [1] (pH 6.5, modulator: ogerin) it was 0.222.
Turning to Y44S, the cAMP reporter score in data set [1] (pH 5.5) was -0.397; in data set [1] (pH 6, modulator: ogerin), -1.08; in data set [1] (pH 6.5, modulator: ogerin), -1.16. The surface expression score in data set [2] was -1.5.
Turning to Y44R, the cAMP reporter score in data set [1] (pH 5.5) is -1.58; in data set [1] (pH 6, modulator: ogerin), -0.908; in data set [1] (pH 6.5, modulator: ogerin), -0.714.
As for Y44K, the cAMP reporter score in data set [1] (pH 5.5) was -0.438; in data set [1] (pH 6) it was -1.25; in data set [1] (pH 6, modulator: ogerin), -1.17; in data set [1] (pH 6.5, modulator: ogerin), -1.8. For the same variant, the surface expression score in data set [2] is -1.92.
For Y44M the same measures were -0.218, -0.983, -0.088, -0.971 and -1.33.
As for Y44G, the cAMP reporter score was -1.35 in data set [1] (pH 5.5); -2.02 in data set [1] (pH 6); -1.21 in data set [1] (pH 6.5, modulator: ogerin). For the same variant, the surface expression score in data set [2] was -2.71.
For Y44L, the cAMP reporter score is -0.928 in data set [1] (pH 5.5); -0.311 in data set [1] (pH 6); -1.16 in data set [1] (pH 6, modulator: ogerin); -0.641 in data set [1] (pH 6.5, modulator: ogerin). Besides, the surface expression score in data set [2] was -1.94.
